# Laboratory results as given in publication PMC12136788.
# This is one part of the list.
# T1: UNK ZnF1-3 (human, UniProt Q9C0B0 31-174)
# T1 sequence: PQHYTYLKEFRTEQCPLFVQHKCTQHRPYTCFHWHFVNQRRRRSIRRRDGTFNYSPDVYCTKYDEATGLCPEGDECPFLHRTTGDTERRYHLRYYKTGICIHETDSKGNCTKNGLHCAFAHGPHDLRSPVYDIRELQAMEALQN
# B1: chr20:44444512:44444513:+_ENSG00000175063_ENST00000356455|hu_mus|FALSE|FALSE (ssRNA)
# RNA: GGGAGUUCUACAGUCCGACGAUCCAGGUAUUUCUUAAAUGCUGUGGGGUUUUUCCAGAGUUCCGCAGCGUGUGUGUUCAAAGGGCUAUCGAUGUUGGGUUCUCCUAGCAGGCUCUGGAUAGAGAGCAAGAUAGUCCUGACAUCCAACAGAGGAUUGAGCAUCA
# B2: chr7:65705475:65705476:+_ENSG00000169902_ENST00000304842|hu_hu|hu_hu_hu_mus_True|18_98 (ssRNA)
# RNA: GGGAGUUCUACAGUCCGACGAUCUCUAUUCGGUGAUGGCAUUCCAUGGCAUGCUGGCCCAGGUAAAACACGGUCACAGAACUAAUCACCAGACACGCCAAGAGUAAGUUCUGCUUCAGCUUUCCAACCAUCUUGAUGUGGUUACAACAGAGGAUUGAGCAUCA
# B3: chr2:130369808:130369809:+_ENSMUSG00000027303_ENSMUST00000028769|mus_mus|FALSE|FALSE (ssRNA)
# RNA: GGGAGUUCUACAGUCCGACGAUCGUUGGCUGGAAGGUUUCCCGUGCGCAUCUUGUCAUUCUGGAUUUUGAUUGAAGUUAAUUUCUUAAACUCCUCCUCUAACCCGUUGUUGCUCGUCCCUGGGAUCUUGUUAUAAAUUUUUUGCAACAGAGGAUUGAGCAUCA
# B4: chr4:123032474:123032475:-_ENSMUSG00000028649_ENSMUST00000154824|mus_mus|motif|central (ssRNA)
# RNA: GGGAGUUCUACAGUCCGACGAUCUGACCGGAAUGGAGUCAUCCCCUGAGAUGCCCCUUCUGGCAGGAUGAAUUUCUCUCGGAGUUCGGUGUUAGUUCUGCCUCGUGCUCGGCAGGGGUCAUUUUUCACUAGAAACUCGUCCAGCAACAGAGGAUUGAGCAUCA
# B5: chr10:34018390:34018391:+_ENSMUSG00000039485_ENSMUST00000047935|mus_mus|motif|central (ssRNA)
# RNA: GGGAGUUCUACAGUCCGACGAUCGCCCAUCAGAUAGUAUUGUAGGGGAUUGGACCACAGCUCCCCUUUGAUAAUUUCAGCGGUUCUGUCGAAUUCUAGGAGGCUGUGGUCUGAGAACCAGUUGAAGAAACUGGGAAUCGUGUUCAACAGAGGAUUGAGCAUCA
# B6: chr17:16285243:16285244:+_ENSG00000170315_ENST00000535788|hu_mus|FALSE|FALSE (ssRNA)
# RNA: GGGAGUUCUACAGUCCGACGAUCUCACGUUCUCGAUGGUGUCACUGGGCUCCACCUCUAGGGUGAUGGUCUUGCCGGUCAGGGUCUUCACGAAGAUCUGCAUUUUGACCUGUUAACAAAUGUGAUGAAAGCACAAACCGCCCACAACAGAGGAUUGAGCAUCA
# B7: 97313816_97328786_801_CDS_ENSG00000139350_ENST00000266742|human|control|control (ssRNA)
# RNA: GGGAGUUCUACAGUCCGACGAUCCUUAAACAAGGAGUACUUCAAGUGCCGAACAGACUGGUUACUACCAUGGCCAAAAGGAGUACUAGAUAAAUUAGUGGUUACACUGUGUAAAAUAAUUUCACCACUAAGAGAUCCAGAAGCCAACAGAGGAUUGAGCAUCA
# B8: chr17:49118984:49118985:-_ENSG00000008294_ENST00000510283|hu_hu|FALSE|FALSE (ssRNA)
# RNA: GGGAGUUCUACAGUCCGACGAUCUCCUUUCUGAGCAUCAGGUGUAAGCAAUCCAUCUCCAGCAGGUAAUGGGAAAAUUCCUAAUGAUAUAGGGCGUUCUUUUCUGAGUAUCCUUGGUAGGUUCUGCGUCAGAGCUGGCACACCCAACAGAGGAUUGAGCAUCA
# B9: chr2:9570881:9570882:+_ENSG00000119203_ENST00000238112|hu_mus|hu_hu_hu_mus_False|28_28 (ssRNA)
# RNA: GGGAGUUCUACAGUCCGACGAUCACUUGUCUUCUGAAGGAACCAGGGCAGGGCUCCACAGUGAUCCAAAUGGAAAUGACUGAUCAACAGAAGGUCGAUCUCAGCUGGGUCAAUUAAGUCAAUGUAAGGAAGGGCAUCCAUUCCCAACAGAGGAUUGAGCAUCA
# B10: chr3:102850973:102850974:+_ENSMUSG00000068823_ENSMUST00000029446|mus_hu|FALSE|FALSE (ssRNA)
# RNA: GGGAGUUCUACAGUCCGACGAUCACGGUGAUCUGAAUGGGAAUGAAAUGAAACCGUGCCCUUGGGAAGUUUUUUAAUCCUAAUAGCAUGAUUUCUUUGAGCAGAGAGCAUAUCAGGAACCACAGUAAACUCUACUUCAUCUGCCAACAGAGGAUUGAGCAUCA
# B11: chr2:42509997:42509998:+_ENSG00000143924_ENST00000318522|hu_mus|hu_hu_hu_mus_True|48_68 (ssRNA)
# RNA: GGGAGUUCUACAGUCCGACGAUCUCGCUGAGUCCUCUCCUCAUAAUUAAACAGGACUACCACUGAGGCAAUGAAAUAAACUAUCUCCCCGGUCGGAAGCAGGUAUACAUUCGCUCUACAGUCCUUUCCUCGAUAACCGUAUACCAACAGAGGAUUGAGCAUCA
# B12: chr7:143002065:143002066:+_ENSG00000106144_ENST00000310447|hu_hu|FALSE|FALSE (ssRNA)
# RNA: GGGAGUUCUACAGUCCGACGAUCCAGAGUGCUGCAGUAUUCAGACAUCUCCUUGCACCGGUGGAAUUCUGUGCCAGGAGCAUAACCUUCCCGAUCCUUGAUAAGUGCGUUCACCUUAACCAGCAUGUCGGCCACGUGCAUAUCCAACAGAGGAUUGAGCAUCA
# B13: chr3:121489220:121489221:-_ENSG00000173226_ENST00000310864|hu_mus|FALSE|FALSE (ssRNA)
# RNA: GGGAGUUCUACAGUCCGACGAUCUGCCAGCUUUCACAGUACUCUCUAGGGAGGUUUGGUUCCACCGAUAAAUAACAUUCCUAAAUCUAUACUAAGCUCAUCCUUUGGAACAUCAACCUCAUCCCCUGGUUCUUCUCCAAGCUUCAACAGAGGAUUGAGCAUCA
# B14: 91961825_91961945_1595_CDS_ENSG00000187742_ENST00000375807|human|control|control (ssRNA)
# RNA: GGGAGUUCUACAGUCCGACGAUCCUUCUUGGCCUUGGGGAUCUCCCUCUGCUUCCCUUUCUUCAUCAGUGGGGCGCUGGAGUCCAAGGGAUUGUGCGGGGUCUUCAUUUGACUCAUGCGGCGGCCUCUCUCCCCUGAUGCACACAACAGAGGAUUGAGCAUCA
# B15: chr1:93301758:93301759:+_ENSG00000122406_ENST00000370321|hu_mus|motif|central (ssRNA)
# RNA: GGGAGUUCUACAGUCCGACGAUCGUAUUCACCUCCAUUCACCUCCACUUGGCCUUCAUAGAUCUUGUCCAUGCCAAACCGGUUCAGAAGCCUGCGGGCCAGCAGCAGGCCAGUGCAAUAGGCUGCAGCAUAAUUUGUCAGGCCCAACAGAGGAUUGAGCAUCA
# B16: chr17:55758012:55758013:+_ENSG00000153944_ENST00000284073|hu_mus|FALSE|FALSE (ssRNA)
# RNA: GGGAGUUCUACAGUCCGACGAUCUCCUUUUAAAAAACGUCUUGGGAAAAGCAGUUUUUCAUAUUUUAAAUAAAAAUCUAGCUAGAUCAUAACAUUAGAAGCUGUGCACAGAGAGGCUGGUAGGCUGGCAGGGUGCUAAUGUGGCAACAGAGGAUUGAGCAUCA
# B17: chr10:1038518:1038519:+_ENSG00000107937_ENST00000545048|hu_hu|hu_hu_hu_mus_False|58_108 (ssRNA)
# RNA: GGGAGUUCUACAGUCCGACGAUCCAGUCUAUCAUGGUAAUUCUGUUGAGUAAAUUUGACUUUUCUCAUAUAAAAAUGUCUAAUGCGAUGAAUUUGAUAAUGUUUAUGAAUAACCGUUGGAGUCUUUCGUUGAGUCUUGGAUAACAACAGAGGAUUGAGCAUCA
# B18: chr7:25763974:25763975:-_ENSMUSG00000040907_ENSMUST00000080882|mus_hu|FALSE|FALSE (ssRNA)
# RNA: GGGAGUUCUACAGUCCGACGAUCCUUCUCCACCCAACCCCCUGGGUUCCUGCGCAGGAUGAGUUUGCGGAUUUCGUCGUAGACGAAGAUGAGGAAACUGUAGGGGAAGGCACAGAACCACCAGCUGGGCUUGAGAGGGUACAUCAACAGAGGAUUGAGCAUCA
# B19: chr8:104447970:104447971:+_ENSG00000164934_ENST00000297579|hu_hu|hu_hu_hu_mus_False|8_68 (ssRNA)
# RNA: GGGAGUUCUACAGUCCGACGAUCAUACACUUCCCUGCUUCGGCUCUUGUCCACAGGAAAGAUUCUAAUAGAUUUAUCAAAGCUGGCAGACACAAAUUCCUUCCCAGUGGGAGAGUAGUCCACAUCAAGCACUGCAGACACGUGCAACAGAGGAUUGAGCAUCA
# B20: chr16:14041815:14041816:+_ENSG00000175595_ENST00000311895|hu_hu|FALSE|FALSE (ssRNA)
# RNA: GGGAGUUCUACAGUCCGACGAUCGGGGCACCAGAGAAUCCGUAGUCUGGGGAAGUGAAGUGUAAGAAGAGUGAGUUUGGAACUAAUGUCAUUGCUGGAGAUCUCCUGAAACAAGGCACCUCGGGAAGUGAGAGAGAAAGGCUUCAACAGAGGAUUGAGCAUCA
# B21: 64906751_64907430_1076_3pUTR_ENSG00000113595_ENST00000231524|human|control|control (ssRNA)
# RNA: GGGAGUUCUACAGUCCGACGAUCACAAUUCCAACUAAUUUUCUGGAAUAAUCUGAGAUUUCCUCUGUGAAGGUCCGUAUGCAGUGAGCCAUAUCUAAAAUUGAUGCUCGGAUCUGAUUAGCUUCUGGUUCCAAUACUGAAUGCCAACAGAGGAUUGAGCAUCA
# B22: chr11:54532911:54532912:-_ENSMUSG00000052298_ENSMUST00000064104|mus_mus|FALSE|FALSE (ssRNA)
# RNA: GGGAGUUCUACAGUCCGACGAUCGCAGAGGGGCUGGAGGUGCAAUGAAAAGGCUUAAAAUGGAAAAAUUACAAUACAGUGCUAGCAGUCACAGAAAAGACCAUGCUAAGAUCCGAUCCAUGUCAAUUAAACAUUGAAAAUUCACAACAGAGGAUUGAGCAUCA
# Biological target: T1, UNK ZnF1-3
# Assay: nsRBNS (natural sequence RNA bind-n-seq); RBNS binding buffer (assumed for nsRBNS): 25 mM Tris pH 7.5, 150 mM KCl, 3 mM MgCl2, 0.01% Triton X-100, 500 ug/ml BSA, 20 U/ml SUPERase-In, 4 C; UNK is unkempt and MSI1 is Musashi-1; names of the RNAs are library labels; protein concentration not given here; high values mean tight binding
row,Binder,binding signal [enrichment R]
1,B1,0.494
2,B2,0.511
3,B3,0.354
4,B4,0.673
5,B5,0.819
6,B6,0.835
7,B7,1.43
8,B8,1.42
9,B9,1.41
10,B10,1.31
11,B11,1.21
12,B12,0.614
13,B13,1.02
14,B14,0.749
15,B15,1.46
16,B16,2.12
17,B17,0.734
18,B18,0.894
19,B19,1.17
20,B20,2.09
21,B21,1.02
22,B22,2.96
